Results taken from the supplement of paper PMC11417369.
± gives the standard deviation of the averaged measurements. The list shows a part of the results.

What follows are sequences tested on PfAP2-EXP AP2 domain (GST-tagged) (assay: gcPBM binding intensity (ln(normalized median fluorescence intensity)); higher = stronger DNA binding).
Summary of the method: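 Alexa488 anti-GST antibody, scanned at 488 nm, detected GST-tagged P. falciparum DNA-binding domains that had been expressed in E. coli and incubated for 1 h on an Agilent 4 × 180k array. The array carried primer-extended double-stranded 36-bp intergenic genomic probes and negative controls. Binding intensity is the highest Masliner-normalised natural-log median intensity across replicate spots of either orientation of each probe.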

Row | Sequence | gcPBM binding intensity (ln)
1 | TAATATTATATATAAACACACATACCCATGTAAATA [CACACA_site5170] | 8.71 ± 0.47
2 | TTTGTTTTAAATATTATACACACGTAAAAGTATAAT [CACACA_site7954] | 8.5 ± 0.35
3 | ATATATATATCAACAACACACGATTAACTAAAAAAA [CACACA_site302] | 9.12 ± 0.16
4 | TTTTTTTAAACTGAAAGTACTTATTCCAAGAAAATA [XGTACX_site50] | 8.24 ± 0.38
5 | ATAATGACTAAATTTAAACACACAAGGGGAGTTTAC [CACACA_site8209] | 8.33 ± 0.42
6 | ATAAGATATGTATATACACACATTTATTTACATATA [CACACA_site3263] | 8.42 ± 0.59
7 | TATATATATATATACACACACATATATATATATATA [CACACA_site1346] | 9.96 ± 0.37
8 | GCATAAGAAATAAATAGTACACACATAGACACACAC [XGTACX_site3095] | 9.21 ± 0.19
9 | AAAACAAATGAGTACACACACATAAAAGTTGAAAAT [CACACA_site6238] | 8.81 ± 0.52
10 | CGCACAAAAATATACACACACACATCTATATTTATT [CACACA_site7675] | 8.75 ± 0.34
11 | TACCCATATTAATATGTGCGCATATAAAAGTCAAAC | 9.09 ± 0.47
12 | TTATATATATATAATACACACATAATAATATATTTA [CACACA_site3038] | 8.25 ± 0.4
13 | GAAATAGAAATAAAATAGGCATACAATAGAACTAAG [TGCATGCA_negctrl_site537] | 9.04 ± 0.58
14 | ATTTTTTTTATTTTTTCAATATATATATATATATAT [CACACA_negctrl_site1444] | 10.2 ± 0.19
15 | ATATATGAGCAAAAATATATAAGATAACACATAAAT [CACACA_negctrl_site167] | 8.77 ± 0.47
16 | TTATATATATATTATAGTACATATATAATATAGTAA [XGTACX_site6869] | 8.57 ± 0.85
17 | TCTCTATAAATAAATACATGCATATAATAAAGAATT [TGCATGCA_site710] | 9.04 ± 0.45
18 | AATATATAAATAAATACACACATAAAATAGAAATAT [CACACA_site1663] | 9.03 ± 0.24
19 | AAAAACAAAAAAGAAGCACACATATATATATATATA [CACACA_site8779] | 10.1 ± 0.32
20 | TATTTAAAAATATATACACACATTTTATATTATTAT [CACACA_site781] | 8.16 ± 0.38
21 | CCTTATTATTATTTTACACACGTCCTAATAAGAGGA [CACACA_site1319] | 8.68 ± 0.43
22 | AATATTATATATATGGGTACTAATTCCTTTAATTTC [XGTACX_site102] | 8.15 ± 0.3

Row | Sequence | gcPBM binding intensity (ln)
23 | TTTATCTGATATATTACACACAAAAAAAAAAAAAAA [CACACA_site7637] | 8.19 ± 0.28
24 | TATTTTACAAAATAAGGTACGTAAATATATGGTAGG [XGTACX_site2133] | 8.97 ± 0.35
25 | AAATATCTTTTATATTGTACATATTCCTTATGTGGA [XGTACX_site7638] | 8.27 ± 0.49
26 | ATAAAACAAAAATATAAACACACATACATTGGTTTT [CACACA_site8809] | 8.16 ± 0.39
27 | ATAAAAAATAAATATATACATACATACATACATATA [XGTACX_negctrl_site507] | 8.21 ± 0.49
28 | TTTTCAAAAATATACACACACATAAATATAGGTATA [CACACA_site6506] | 8.51 ± 0.47
29 | TTGATTTACTATAGATGTACGTAAAATATAAATAAA [XGTACX_site8256] | 8.66 ± 0.33
30 | AATTTAAAAGAAAAAGAAAAATAATAAACAGAAGCA [XGTACX_negctrl_site503] | 8.86 ± 0.47
31 | TATATAATATATATATGTACACATATACATTTTTAT [XGTACX_site2832] | 8.3 ± 0.17
32 | TTGTAAGAAAAACACACACACACATATATATATATA [CACACA_site795] | 10.1 ± 0.23
33 | TTTTCGGATAATAATTGTACGAAACATTTAAAAAAA [XGTACX_site8898] | 8.44 ± 0.4
34 | ACTCAAAATTATAATTGTACAAATGCTTTGTTTAAT [XGTACX_site3437] | 8.71 ± 0.53
35 | TAAATAGTTATAAAAGTGCAAAAAAAAAAAAAAAAA [GTGCAC_site9550] | 8.19 ± 0.26
36 | ATCATATATGTTATTACACACGTTATGTTATTATAA [CACACA_site2712] | 8.64 ± 0.36
37 | TATAATTTAGCTTGTGCATGCAGGTGCTACATTTGT [TGCATGCA_site217] | 9.835 ± 0.092
38 | TTAATTTCAAGTAGAAGTACTTTTATGATTGTGAGG [XGTACX_site1247] | 8.41 ± 0.6
39 | GTGCATAGATGATATACACACAATATAATAGTATGT [CACACA_site5373] | 8.48 ± 0.28
40 | GTTTCAAAATTAAACACACACAAAAAAAAAAAAAAA [CACACA_site2680] | 8.07 ± 0.58
41 | TATTATATCTTTATTATTCATCTAAAATTTGTATTT [TGCATGCA_negctrl_site233] | 8.36 ± 0.55
42 | CTATAACCTCTGTTCACACATATATCATAATTTACA [CACACA_site5446] | 8.77 ± 0.44
43 | TTTATTTTGATTTAATGTACAAATAGTAAAACAAAA [XGTACX_site4789] | 8.73 ± 0.3
44 | ACATTATATCTAAGTACACACATTAATTTTTTTTTT [CACACA_site7850] | 8.63 ± 0.37

Row | Sequence | gcPBM binding intensity (ln)
45 | TATTTAAAAGCATATACACACAACTGGAATGAAAAG [CACACA_site6128] | 8.9 ± 0.3
46 | TTGTTTTTCTTTGAATGTACTTAATGATTTCCAATT [XGTACX_site2499] | 8.75 ± 0.44
47 | TCCATATATTTTAAAAGTACACATAAAAATTATTTA [XGTACX_site8127] | 8.41 ± 0.3
48 | AATGGAAAAATAGGCACACACACATATATACATATA [CACACA_site1298] | 8.79 ± 0.46
49 | TAAAATAAAACAAACACACACACACGGACACAAAAA [CACACA_site7754] | 8.91 ± 0.47
50 | TTTTTTTTTTATTTTGCACACTTCTAATTTAGTTCT [CACACA_site5828] | 9.16 ± 0.26
51 | ATATAAATAAAATATACACACATACTGTTCATTTAA [CACACA_site7880] | 8.28 ± 0.26
52 | AAGTTAATGAAAAAATGTACCCAGAGTATTTTAAAA [XGTACX_site2997] | 8.49 ± 0.32
53 | AAAAAAAAAAAAGATTGTACAGAATACTTTTAAAAT [XGTACX_site3576] | 8.105 ± 0.007
54 | TGGGAAAATAATATTTATTTTATATATAAATATATA [CACACA_negctrl_site121] | 7.92 ± 0.3
55 | TATTGTAATATTAGCACACATTACCTCACTACAAAT [CACACA_site5419] | 8.72 ± 0.4
56 | AACATGAAAATATATGCATTTGTATATATATATATA [TGCATGCA_negctrl_site16] | 10 ± 0.31
57 | AAAATACTAGATAGGGGAAAAAAAAAAAAAAAAAAA [CACACA_negctrl_site1732] | 8.18 ± 0.71
58 | AAAGCACCCATGCACACACACAAAGGAAAAGAAAAA [CACACA_site6249] | 8.55 ± 0.46
59 | ATAAATGATAAAATTGCATGTGAATGTGAAAATATT [TGCATGCA_site251] | 9.02 ± 0.44
60 | AATAAAACCCCGAAATCACACATTAAATGAAAAATA [CACACA_site4732] | 9.18 ± 0.83
61 | AAGTATGTCGACTGTTGTACTTTTATCATTTATTAT [XGTACX_site1129] | 8.7 ± 0.43
62 | ATATACTATGATAATACATGCGATAATACATTTTTA [TGCATGCA_site387] | 8.56 ± 0.16
63 | AATAAAAAAATGTCACGTACTTATTTTATTAAACCT [XGTACX_site3031] | 8.44 ± 0.35
64 | TATTTATCATCATATTGTACATTATATATATAAAAT [XGTACX_site6675] | 8.59 ± 0.39
65 | GTATGGCGTATCATATGTACTAAAAAAAAATAAAAA [XGTACX_site5101] | 8.66 ± 0.52
66 | ATATATATATATAGTGCACACATATAAAATATATAT [CACACA_site8884] | 10.29 ± 0.021

Row | Sequence | gcPBM binding intensity (ln)
67 | TTATATGCTCAATGTTGTACATGTAGATATATATAT [XGTACX_site8211] | 9.315 ± 0.035
68 | ATCTGTCGACAGGACAGTACACAGTAGCCAGTAACT [XGTACX_site2001] | 8.6 ± 0.51
69 | TTTTTTAATTGTGATACGTATATTATTTAATGATAA [GTGCAC_negctrl_site704] | 8.58 ± 0.61
70 | TGTATATTTTTTATTACACACTTTTTACTTTTTAGA [CACACA_site3069] | 8.46 ± 0.35
71 | ATAAAATATAGATGCACACACATATAGATTTCATAC [CACACA_site7636] | 8.54 ± 0.26
72 | AGTATATACACGTGCGTGCACAGATATTCTTTTTTT [GTGCAC_site9398] | 8.6 ± 0.3
73 | GATATAATTATATTATGGTGTTTTTGATAGATATTT [GTGCAC_negctrl_site313] | 8.4 ± 0.46
74 | TATTTTAAAGAGAAAACATGCATTATATAGAACATT [TGCATGCA_site328] | 8.64 ± 0.45
75 | ATCAAACCATAAAAGAGTACAAAAGGATGATATTTT [XGTACX_site8883] | 8.79 ± 0.59
76 | ATGGAAATATATACATGTACATAAATATATATATAT [XGTACX_site8391] | 9.96 ± 0.13
77 | AGTAGTCTGGAGAAGAGTACATAGTATCTGGTAACC [XGTACX_site2043] | 8.67 ± 0.48
78 | AGTGGACTTTTTTTTTTTTTTTTTTTTTTTTTATTA [CACACA_negctrl_site547] | 8.11 ± 0.6
79 | ATGTTTTGCATATATTATATATTTATTTATTTTTTT [CACACA_negctrl_site729] | 8.41 ± 0.33
80 | AGAGAGATGACAAAAAGATGAATAACGTTAAGGGAT [XGTACX_negctrl_site120] | 9.24 ± 0.56
81 | TATTTATTGTGATACTTATATTATTTTATGATTAAA [CACACA_negctrl_site901] | 8.27 ± 0.37
82 | AATTATATTCTATTCACACATATTCCAACCTCTTTT [CACACA_site4670] | 8.85 ± 0.52
83 | AAAAGATAATTATGCACACACACACCCAGACACAAC [CACACA_site5428] | 9.11 ± 0.4
84 | ATGAATATAATAAAGAAACACACGTATACATAATGA [CACACA_site1355] | 8.8 ± 0.54
85 | TGTATGTTGTAAAATTGTACATATATATTATATTTA [XGTACX_site4883] | 8.35 ± 0.28
86 | TGAAAGAACCTGATTACACACATAAATTATATATAT [CACACA_site26] | 8.43 ± 0.32
87 | TTTGATGGTACACGTACACACCTTGCAAATATTTTT [CACACA_site4645] | 8.89 ± 0.37
88 | AGTTCTTCGTACCAAAAAACGGCACGCATATGTATA [TGCATGCA_negctrl_site469] | 8.56 ± 0.39
